# Assay results published in patent US20130079280A1 (MEDLMMUNE, published 2013).
# B1: A9 (1E11), tetravalent antibody-like Tn3 (other)
# heavy: SQIEVKDVTDTTALITWAKPWVDPPPLWGCELAYGIKDVPGDRTTIDLQQKHTAYSIGNLKPDTEYEVSLICFDPYGAKSNPAKETFTTGGGTPTSSASTKGPSVFPLAPSSKSTSGGTAALGCLVKDYFPEPVTVSWNSGALTSGVHTFPAVLQSSGLYSLSSVVTVPSSSLGTQTYICNVNHKPSNTKVDKRV[omitted - human IgG1 Fc]
# light: SQIEVKDVTDTTALITWAKPWVDPPPLWGCELAYGIKDVPGDRTTIDLQQKHTAYSIGNLKPDTEYEVSLICFDPYGAKSNPAKETFTTGGGTPTRTVAAPSVFIFPPSDEQLKSGTASVVCLLNNFYPREAKVQWKVDNALQSGNSQESVTEQDSKDSTYSLSSTLTLSKADYEKHKVYACEVTHQGLSSPVTKSFNRGEC
# B2: B9 (D1), format-matched antibody-like control Tn3 (other)
# heavy: SQIEVKDVTDTTALITWSPGERIWMFTGCELTYGIKDVPGDRTTIDLTEDENQYSIGNLKPDTEYEVSLICPNYERISNPAKETFTTGGGTPTSSASTKGPSVFPLAPSSKSTSGGTAALGCLVKDYFPEPVTVSWNSGALTSGVHTFPAVLQSSGLYSLSSVVTVPSSSLGTQTYICNVNHKPSNTKVDKRV[omitted - human IgG1 Fc]
# light: SQIEVKDVTDTTALITWSPGERIWMFTGCELTYGIKDVPGDRTTIDLTEDENQYSIGNLKPDTEYEVSLICPNYERISNPAKETFTTGGGTPTRTVAAPSVFIFPPSDEQLKSGTASVVCLLNNFYPREAKVQWKVDNALQSGNSQESVTEQDSKDSTYSLSSTLTLSKADYEKHKVYACEVTHQGLSSPVTKSFNRGEC
# notes: Control of A9 carrying the Synagis-specific D1 module; also called B9 (clone D1)
# B3: A7 (1E11), tetravalent Fc-fusion Tn3 (Fc fusion)
# chain: AMASGGGGSAIEVKDVTDTTALITWAKPWVDPPPLWGCELAYGIKDVPGDRTTIDLQQKHTAYSIGNLKPDTEYEVSLICFDPYGAKSNPAKETFTTGGGGSGGGGSGGGGSAIEVKDVTDTTALITWAKPWVDPPPLWGCELAYGIKDVPGDRTTIDLQQKHTAYSIGNLKPDTEYEVSLICFDPYGAKSNPAKETFTTGGGGSGGGGSGTGA[omitted - human IgG1 Fc]
# Experiments:
# [1] = target: T1, human TRAIL R2 on the cell surface (H2122, Colo205, Jurkat and other tumor cell lines) (human, UniProt O14763 56-440); assay: cell-based or functional assay
# [2] = target: T1, human TRAIL R2 on the cell surface …; assay: flow cytometry on H2122 cells, 10 nM protein, anti-human IgG Alexa Fluor 488
Binder,"EC50, killing of H2122 (CellTiter-Glo) [1] [nM]","Maximum Inhibition %, H2122 [1] [%]",binding result [2]
B1,1.98,80,–
B2,–,–,no binding (tested: 10 nM)
B3,–,88,–
